Source: PubChem BioAssay AID924 (National Center for Advancing Translational Sciences (NCATS), 2007)
The campaign covered roughly 130,000 compounds. About 1,200 (0.92%) were called active. The shares of active, inactive and inconclusive entries below differ from those in the screen. Calls follow the shape of the dose curve; as a rule, active = well fitted cell-killing curve with a large enough effect; inconclusive = small, poorly fitted or top-dose-only effect; inactive = no such curve, though single readings can be large or run the other way. A potency beside an inconclusive call is a rough fit, not a confirmed value. More than one record can exist for a structure, and the calls need not agree.

Experiment: qHTS Screen for Compounds that Selectively Target Cancer Cells with p53 Mutations: Cytotoxicity of p53ts Cells at the Permissive Temperature; also: nearly all actives have a fitted effect of over 55% in size;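 as to activity change, negative = cytotoxicity: 0% = DMSO and -100% = full killing by reference compound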
Conditions: H1299-p53A138V at 32C, ATP luminescence viability, 24 h; activity change, negative = cytotoxicity: at 46.1 µM (top of the series)
Description: NIH Chemical Genomics Center [NCGC] NIH Molecular Libraries Screening Centers Network [MLSCN] MLSCN Grant: 1 X01 MH079844-01 Assay Submitter (PI): Dr. SUN, YI, University of Michigan NCGC Assay Overview: Synthetic Lethal Screen for Compounds to Kill Cancer Cells with p53 Mutation. Tumor suppressor gene p53 serves as a major cellular barrier against tumorigenesis. […] The goal of this screening is to identify small molecule probes that selectively kill cancer cells with mutations in p53. This screening was carried out using two lines of H1299 lung cancer cells. The H1299-p53 A138V line express a temperature sensitive p53 mutant (p53ts) in which the mutant p53 protein (A138V) is in the mutant confirmation when grown at 39C (the nonpermissive temperature) and in the wild type conformation when grown at 32C (the permissive temperature). A H1299-neo line (p53 null) grown at both 39C and 32C were used as counter-screens to filter out false positive associated with temperature shifting. The small molecular compounds that selectively target mutant p53-containing cancer cells were selected as candidate probes for further study. A cytotoxicity assay based on the measurement of ATP contents in cells was used in this screen. Concentration-responses of all the compounds in the library collection were determined in qHTS using the cell lines and temperature conditions as above.
NCGC Assay Protocol Summary: Both the H1299-p53A138V and H1299-neo cell lines were provided by Dr.Yi Sun, a PI at the University Michigan. The cells were maintained and cultured at 37C. The resuspended frozen cells were used to plate the cells in the 1536-well assay plates at a density of 600 cells per well in 5 ul medium. The assay plates with the cells were incubated at 37C for 16 to 30 hours before the experiments. The library compounds in DMSO solution were added to the cells in assay plates and incubated 24 hours at 39C (for mutant p53 conformation) or 32C (for normal p53 conformation as control). An ATP_lite assay kit (PerkinElmer) was used to determine the cell viability. Tomaxifen (100uM) was used as the positive control for cell killing. Data were normalized to the controls for basal activity (DMSO only) and 100% killing (100uM tamoxifen). AC50 values were determined from concentration-response data modeled with the standard Hill equation. P53 assay protocol: 1. Reagent; 5 uL H1299-p53A138V or H1299-neo cell cells/well 2. Time; overnight; 37C incubation 3. Compounds; 23 nL; 5.9 nM to 46 uM 4. Controls; 23 nL; Tamoxifen 100 uM 5. Time; 24 hr; 37C incubation 6. Reagent; 3 uL; ATP_Lite reagent 7. Time; 20 min; Room Temperature 8. Detection; Luminescence; Viewlux plate reader Keywords: p53, synthetic lethal, cancer, cell viability, cytotoxicity, H1299 cell line, luminescence, MLSMR, MLSCN, NIH Roadmap, qHTS, NCGC
Potency is read from the fitted curve at half-maximal effect; tags tell the direction and shape of the fitted curve.

Compound | Potency | activity change, negative = cytotoxicity
CCOc1ccc(-c2cc(CCCC(=O)NCCCOC)no2)cc1 | inconclusive: 31.6 µM [cytotoxic, single point] | –
COc1cc(OC)cc(C(=O)Nc2ccc3c(c2)CCCN3C(=O)c2cccs2)c1 | inconclusive: 5.01 µM [cytotoxic, full curve, poor fit] | –
Cc1cccc(C(=O)Nc2ccc(CC(=O)O)cc2)c1 | inconclusive: 20 µM [cytotoxic, single point] | –
CCCn1c2ccccc2c2cnn(CC(=O)NCC3CCN(Cc4ccccc4C)CC3)c(=O)c21 | inactive | –
CC/C(=C(\c1ccccc1)c1ccc(OCCN(C)C)cc1)c1ccccc1 | active: 31.6 µM | –
COc1ccc(OC)c(NC(=O)CSc2nnnn2-c2ccc3c(c2)OCO3)c1 | inconclusive: 20 µM [cytotoxic, single point] | –
Cc1cc(C)cc(C(=O)Oc2coc(CSc3nnc(NC(=O)C4CC4)s3)cc2=O)c1 | inconclusive: 0.0316 µM [cytotoxic, full curve, poor fit] | –
C=C(C)COc1ccc(-c2n[nH]c(C)c2Oc2ccccc2OC)c(O)c1 | inconclusive: 31.6 µM [cytotoxic, single point] | –
Nn1cnnc1SCC(=O)Nc1ccc(C2CCCCC2)cc1 | inconclusive: 25.1 µM [cytotoxic, single point] | –
COc1ccc(C(=O)Nc2ccc3c(c2)N(C2CCCC2)C(=O)c2ccccc2S3)cc1OC | inconclusive: 3.16 µM [cytotoxic, full curve] | –
CC(=O)c1ccc(N2CCN(S(=O)(=O)c3cc(-c4onc(C)c4C)ccc3C)CC2)cc1 | inactive | –
COCON1C(=O)CN(C(C)=O)C1c1ccc(Cl)cc1Cl (stereo unspecified) | inconclusive: 12.6 µM [cytotoxic, single point] | –
O=C(CSc1nc2ccccc2nc1Cc1ccc(Cl)cc1)N1CCCCC1 | inactive | –
CCc1ccccc1-n1c(SCC(=O)Nc2ccc(C)cc2)nc2n[nH]c(C)c2c1=N | inactive | –
CC(C)(C)c1csc(NC(=O)c2ccc(Cl)s2)n1 | inactive | –
Nc1nc2nc(-c3ccccc3)cc(=O)n2[nH]1 | inconclusive: 12.6 µM [cytotoxic, partial curve] | –
CC(C)COc1ccc(-c2nnc(-c3ccco3)o2)cc1 | inconclusive: 7.94 µM [cytotoxic, partial curve] | –
Cc1cc(NC(=O)c2oc3c(c2C)-c2[nH]ncc2CC3)ccc1Br | inactive | –
Cc1ccc(Cl)cc1N1CCN(C(=O)c2sc3nc4n(c(=O)c3c2C)CCC4)CC1 | inactive | –
Cc1cc(C)cc(NC(=O)Cn2nnc(C(=O)NCc3ccccc3Cl)c2N)c1 | inconclusive: 35.5 µM [cytotoxic, single point] | –
N#CC1=C(N)Oc2n[nH]c(-c3cccs3)c2C1c1cccs1 (stereo unspecified) | inconclusive: 0.316 µM [cytotoxic, full curve, poor fit] | –
O=c1c(N2CCN(c3cccc(Cl)c3)CC2)csc2ccccc12 | inconclusive: 15.8 µM [cytotoxic, single point] | –
CCc1nn(CC(=O)NCc2ccccc2Cl)c(=O)c2cc3ccccc3n12 | inactive | –
CCOc1ccccc1C(=O)Nc1cc(Cl)ccc1O | inconclusive: 31.6 µM [cytotoxic, single point] | –
Cc1ccc(OCc2ccoc2C(=O)O)cc1C | inconclusive: 12.6 µM [cytotoxic, partial curve] | –
CCOc1ccc(NC(C)=O)cc1 | inactive | –

Compound | Potency | activity change, negative = cytotoxicity
CN1CCC[C@@H]1CCO[C@](C)(c1ccccc1)c1ccc(Cl)cc1 | inconclusive: 12.6 µM [cytotoxic, partial curve] | –
COc1ccc(-c2nc3cnc(N4CCNCC4)nc3n(CCc3ccccc3)c2=O)cc1 | inconclusive: 20 µM [cytotoxic, single point] | –
CCC(=O)Nc1ccccc1-c1nc2ccccc2n(C(C)C(=O)Nc2cccc(Cl)c2C)c1=O (stereo unspecified) | inactive | –
O=c1n(Cc2ccc(Cl)cc2)c2ccccc2c2nc(-c3ccccc3)nn12 | inactive | –
Cc1ccc(C(=O)CSc2n[nH]c(C)n2)cc1 | inactive | –
Cc1c(NC(=O)c2cc(-n3cnnc3)ccc2Cl)cccc1-c1nc2ccccc2o1 | inconclusive: 28.2 µM [cytotoxic, partial curve] | –
c1ccc(CNc2ncnc3c2cnn3-c2ccccc2)cc1 | inactive | –
C[C@@H](C(=O)Nc1ccc2ccccc2c1)[C@@H]1C[C@@]1(C)[C@@H](NC(=O)c1ccncc1Cl)c1ccccc1 | inactive | –
Cc1cccc(NC(=O)C2CCN(S(=O)(=O)c3cccc4cccnc34)CC2)n1 | inconclusive: 31.6 µM [cytotoxic, single point] | –
COc1cccc(CNc2ccc(N3CCCCC3)cc2)c1OC | inconclusive: 31.6 µM [cytotoxic, single point] | –
CC(=O)c1cccc(NC(=O)Nc2ccc(C(=O)N3CCCC3)cc2)c1 | inconclusive: 10 µM [cytotoxic, partial curve] | –
Cc1ccc(NC(=O)c2ccc3oc(=O)c(S(=O)(=O)c4ccccc4)cc3c2)cc1C | inconclusive: 12.6 µM [cytotoxic, partial curve] | –
COc1ccc(NC(=O)Cn2c(=O)n(Cc3ccco3)c(=O)c3cc(OC)c(OC)cc32)cc1 | inactive | –
Cn1c(=O)c2c(nc(NCc3ccco3)n2C/C=C/c2ccccc2)n(C)c1=O | inconclusive: 12.6 µM [cytotoxic, partial curve] | –
Fc1ccccc1-n1ncc2c1ncn1nc(-c3ccccc3Cl)nc21 | inactive | –
O=S1(=O)C=C(Sc2nc3ccccc3s2)c2ccccc21 | active: 12.6 µM | –
COC(=O)c1oc2ccc(OC)cc2c1N | inconclusive: 10 µM [cytotoxic, partial curve] | –
COc1ccc(N2CCN(Cc3nc4c(c(=O)[nH]c(=O)n4C)n3Cc3ccccc3F)CC2)cc1 | inactive | –
CCc1ccc(C(=O)CC2(O)C(=O)N(CCc3ccccc3)c3ccc(Cl)cc32)cc1 (stereo unspecified) | inconclusive: 10 µM [cytotoxic, single point] | –
CN(C(=O)c1c(O)c2ccccc2n(C)c1=O)c1ccccc1 | inactive | –
Cc1ccccc1OCC(=O)Nc1ccccc1OCc1cc(=O)n2ccccc2n1 | inconclusive: 12.6 µM [cytotoxic, partial curve] | –
FC(F)(F)c1cccc(Nc2c3c(nc4ccc(Cl)cc24)CCC3)c1 | active: 11.2 µM | –
CCCCCN1C(C(=O)c2ccccc2)=C(OC(=O)CC)c2ccccc2S1(=O)=O | inconclusive: 31.6 µM [cytotoxic, single point] | –
COc1cc(OC)c(NC(=O)CCc2c(C)nc3c4c(C)cc(C)nc4nn3c2C)cc1Cl | inactive | –
O=C(c1cnccn1)N1CCC2(CC1)CCN(c1cccc(-c3ccccc3)c1)CC2 | inactive | –
O=S(=O)(/N=C(/Nc1cc(N2CCOCC2)ncn1)c1ccccc1)c1ccccc1 | inconclusive: 2.51 µM [cytotoxic, full curve] | –

Compound | Potency | activity change, negative = cytotoxicity
CCC(=O)Nc1nnc(S(=O)(=O)N2c3ccccc3CC2C)s1 (stereo unspecified) | inactive | –
CC(C)(C)C1CCc2[nH]c3ccccc3c(=O)c2C1 (stereo unspecified) | inconclusive: 12.6 µM [cytotoxic, partial curve] | –
Fc1cccc(CSc2ccc(-c3cccs3)nn2)c1 | inconclusive: 14.1 µM [cytotoxic, single point] | –
Cc1cccc(Cn2c(=O)n(-c3ccccc3C)c(=O)c3c2c2cc(C)ccc2n3C)c1 | inconclusive: 10 µM [cytotoxic, partial curve] | –
Cc1ccc2nc(-c3ccccn3)c(Nc3ccccc3C)n2c1 | inconclusive: 20 µM [cytotoxic, partial curve] | –
CC(C)c1ccc2oc(-c3cc(N)ccc3O)nc2c1 | active: 12.6 µM | –
CC(C)N=C=NC(C)C | – | inactive: 6.6% [at 1.84 µM]
O=C(/C=C/Nc1cccc(O)c1)c1ccccc1 | active: 3.98 µM | –
Cc1cccc2nc(CSCc3ccco3)cn12 | inactive | –
Oc1c(CN2CCOCC2)cc(COCc2ccccc2)c2cccnc12 | inconclusive: 3.98 µM [cytotoxic, full curve] | –
Cc1nn2cc(-c3ccc(OC(C)C)cc3)nc2s1 | active: 12.6 µM | –
COC1=CC(=O)C=C(OC)C1=O | inconclusive: 31.6 µM [cytotoxic, single point] | –
O=C(c1ccccc1)N1CCc2cc(CNS(=O)(=O)c3ccc(Cl)s3)ccc21 | inactive | –
COc1ccc(C(=O)NCC(c2cccnc2)N2CCN(c3ccccc3)CC2)cc1OC (stereo unspecified) | active: 10 µM | –
CCCCNC(=O)CCC(=O)NNc1nc2ccccc2c2nc(C)nn12 | inactive | –
CC1CCCN(Cc2nc3c(c(=O)n(C)c(=O)n3C)n2CC(=O)c2ccccc2)C1 (stereo unspecified) | inconclusive: 25.1 µM [cytotoxic, single point] | –
Cc1ccc(N=c2oc3cc(O)ccc3cc2C(N)=O)cc1 | inconclusive: 10 µM [cytotoxic, partial curve] | –
c1ccc2[nH]c(-c3nc4ccccc4[nH]3)nc2c1 | inconclusive: 12.6 µM [cytotoxic, partial curve] | –
CCCNC(=O)c1ccc2c(c1)N=C(CCC)c1ccccc1S2 | inconclusive: 25.1 µM [cytotoxic, single point] | –
Cc1cccc(-c2nc(SCc3cc(=O)c4c(C)cc(C)cc4[nH]3)n[nH]2)c1 | inconclusive: 31.6 µM [cytotoxic, single point] | –
O=C(c1ccccc1)N(Cc1ccccc1)c1ccccn1 | inactive | –
COC(=O)c1ccc(CSc2ncnc3c2nnn3-c2ccc(F)cc2)o1 | inactive | –
O=C(C1CCCN(Cc2ccccc2Br)C1)N1CCCCC1 (stereo unspecified) | inactive | –
CN1C(=C2C(=O)OC(C)(C)OC2=O)Sc2ccccc21 | inconclusive: 0.316 µM [cytotoxic, full curve, poor fit] | –
